Data as given in ChEMBL document CHEMBL4888484, “Replenishing the malaria drug discovery pipeline: Screening and hit evaluation of the MMV Hit Generation Library 1 (HGL1) against asexual blood stage Plasmodium falciparum ,using a nano luciferase reporter read-out” (2022).
Among all 150,000 compounds or so, about 540 (0.36%) showed an effect of 50% or more. Some of the results follow.

What follows are compounds tested on Plasmodium falciparum (assay: Primary screen in NF54 nanoGlo assay, in single point, at 2uM, 72h; a lower Z score goes with more inhibition). Settings: timepoint 72 hour.
Format: functional, Erythrocyte

Going from `CCC(C)c1csc(N(C)C(=O)C2CCOC2C)n1` (stereo unspecified) to `CCOC1CC(NC(=O)N(C)Cc2nc(C)cs2)C12CCC2` (stereo unspecified), the “% Inhibition” value falls from -14% to -18%.

Going from `CCOc1ccccc1N1C[C@@H](c2nc(C3=NOCC3)no2)CC1=O` to `COc1ccc(-c2cc(C(=O)N3CCC[C@H](c4nc(C5CCOCC5)no4)C3)c(C)n2C)cc1`, the “% Inhibition” value rises from -16% to -4%.

Going from `O=c1c(S(=O)(=O)N2CCCC2)cccn1Cc1cc(F)cc(F)c1` to `NC(=O)c1ccc(C(F)(F)F)n(CC(=O)N(Cc2ccc(F)cc2)C2CCCCC2)c1=O`, the “% Inhibition” value rises from -7% to 42%.

Going from `C[C@H]1[C@@H](C(F)(F)F)OCCN1C(=O)c1nccc2cccnc12` to `O=C(c1cccc2ccc(O)nc12)N1CCNC[C@H]1C(F)F`, the “% Inhibition” value rises from -6% to 11%.

Compared with `Cc1cccc(NC(=O)CN2CCC[C@H](CNC(=O)c3cncn3C)C2)c1C`, `CN1CCOC[C@@H](CNC(=O)c2ccc(-c3cnc(N)nc3)cc2)C1` is lower in “% Inhibition” value: -4% for the first, -6% for the second.

Going from `CCC(C)NC(=O)CC(c1cccs1)c1cn(Cc2ccc(F)cc2)c2ccccc12` (stereo unspecified) to `Cc1c(C(=O)Nc2ccc(F)c(F)c2)nnn1CC(=O)NCCc1ccc(Cl)cc1`, the “% Inhibition” value rises from -10% to 8%.

Compared with `CN(Cc1ccc2cccc(Cl)c2n1)[C@@H]1CCCC[C@@H]1O`, `O=C(Cc1cccnc1)N1CC[C@@](O)(c2ccccc2)[C@H]2CCCC[C@@H]21` is lower in “% Inhibition” value: 7% for the first, -15% for the second.

Compared with `CCCC1CCC(NS(=O)(=O)C2CCS(=O)(=O)CC2)CC1` (stereo unspecified), `O=C(O)CCC1CCN(C(=O)C2CCC(F)(F)CC2)CC1` is lower in “% Inhibition” value: -3% for the first, -10% for the second.

First: S=c1sc2c(N3CCN(Cc4ccccc4)CC3)ncnc2n1-c1ccccc1
Second: Cc1cc(-c2ccc(S(=O)(=O)N3CCc4ccccc43)o2)[nH]n1
The “% Inhibition” value of the first is lower: -12% for the first, -2% for the second.

Going from `CC(C)CCC(=O)NCC(=O)N(C)c1cnn(C)c1` to `CC(=O)N[C@H]1CCN(C(=O)c2cc(C(C)C)nn2C)C1`, the “% Inhibition” value rises from -7% to -3%.

First: Cc1nnc2ccc(N3CCCN(C(=O)c4ccc(COC(C)C)o4)CC3)nn12
Second: Cc1cccc(CN2C(=O)C3(CCOCC3)C[C@H]2c2nnnn2C(C)(C)C)c1
The “% Inhibition” value of the first is lower: -15% for the first, -10% for the second.

First: COCCN[C@H]1[C@@H]2OC[C@@H](O2)[C@@H](NCc2ccccc2)[C@@H]1O
Second: CO[C@H]1CNC[C@@H]1Nc1nc(-c2ccccc2)no1
The “% Inhibition” value of the first is higher: 6% for the first, -10% for the second.

Compared with `O=C(N[C@@H](CO)C1CCC1)c1cnn2cccc(Br)c12`, `Cc1cnn([C@@H](C)CNC(=O)c2ccncc2Cl)c1` is higher in “% Inhibition” value: -11% for the first, -3% for the second.

First: Cc1ccc(Cc2cnc(NC(=O)CCc3c(C)nn(CCC#N)c3C)s2)cc1Cl
Second: CCc1nnc(NC(=O)c2cc(-c3ccc(C)c(C)c3)on2)s1
The “% Inhibition” value of the first is higher: 8% for the first, -2% for the second.

`Cc1cc(=O)[nH]c(NCCN2C[C@@](C)(c3ccccc3)CCC2=O)n1` and `O=S(=O)(c1ccccc1Br)N1CC(Nc2ncccn2)C1` are the same in “% Inhibition” value: 7% for the first, 7% for the second.

First: Cc1noc(CN2CCC[C@@H]2C(F)F)n1
Second: Cc1cnc2c(C)cccc2c1N1CC[C@H](OC(F)F)C1
The “% Inhibition” value of the first is higher: 2% for the first, -4% for the second.

Compared with `CCN(C)CC(=O)N1CC[C@@]2(CCCN(CCc3ccccc3)C2)C1`, `COCC[C@]1(c2noc(C3CCOCC3)n2)CCCN(Cc2cn(C)nc2C)C1` is higher in “% Inhibition” value: -8% for the first, 2% for the second.

Going from `Cn1cc(Cl)cc1C(=O)N(Cc1ccncc1)C1CC1` to `O=C(c1ccc(OC2CCC2)cc1Cl)N1CCCO1`, the “% Inhibition” value falls from 5% to -6%.

Compared with `NC(=O)c1cc(C(F)(F)F)cc(Cl)c1F`, `COC(=O)C(NCc1cccc(F)c1F)C(C)O` (stereo unspecified) is higher in “% Inhibition” value: 0% for the first, 2% for the second.

Going from `Cc1ccc(S(=O)(=O)N2C[C@@H](C(=O)Nc3cccc(F)c3)Oc3cc(C)ccc32)cc1` to `O=C(Nc1ccc(OCc2cccnc2)cc1)NC1CCC(O)CC1` (stereo unspecified), the “% Inhibition” value falls from -9% to -12%.

Compared with `Cc1nn(CC(=O)O)c2nccc(-c3cccs3)c12`, `Cc1cc(NC(=O)Cn2ccc(-c3nccnc3C)n2)n(C2CCCCC2)n1` is lower in “% Inhibition” value: 1% for the first, -3% for the second.

In the case of `CCCc1cc(C(=O)Nc2ccc(NC)nc2)no1`, the “% Inhibition” value is reported as -2%.

Going from `CCC(C)c1csc(N(C)C(=O)C2CCOC2C)n1` (stereo unspecified) to `CCOC1CC(NC(=O)N(C)Cc2nc(C)cs2)C12CCC2` (stereo unspecified), the Z score falls from 1.79 to 1.51.

Compared with `CCOc1ccccc1N1C[C@@H](c2nc(C3=NOCC3)no2)CC1=O`, `COc1ccc(-c2cc(C(=O)N3CCC[C@H](c4nc(C5CCOCC5)no4)C3)c(C)n2C)cc1` is lower in Z score: 1.74 for the first, 0.57 for the second.

Compared with `O=c1c(S(=O)(=O)N2CCCC2)cccn1Cc1cc(F)cc(F)c1`, `NC(=O)c1ccc(C(F)(F)F)n(CC(=O)N(Cc2ccc(F)cc2)C2CCCCC2)c1=O` is lower in Z score: 1 for the first, -5.42 for the second.

Compared with `C[C@H]1[C@@H](C(F)(F)F)OCCN1C(=O)c1nccc2cccnc12`, `O=C(c1cccc2ccc(O)nc12)N1CCNC[C@H]1C(F)F` is lower in Z score: 1.12 for the first, -1.68 for the second.

`Cc1cccc(NC(=O)CN2CCC[C@H](CNC(=O)c3cncn3C)C2)c1C` and `CN1CCOC[C@@H](CNC(=O)c2ccc(-c3cnc(N)nc3)cc2)C1` are the same in Z score: 0.55 for the first, 0.55 for the second.

Going from `CCC(C)NC(=O)CC(c1cccs1)c1cn(Cc2ccc(F)cc2)c2ccccc12` (stereo unspecified) to `Cc1c(C(=O)Nc2ccc(F)c(F)c2)nnn1CC(=O)NCCc1ccc(Cl)cc1`, the Z score falls from 1.02 to -1.17.

Going from `CN(Cc1ccc2cccc(Cl)c2n1)[C@@H]1CCCC[C@@H]1O` to `O=C(Cc1cccnc1)N1CC[C@@](O)(c2ccccc2)[C@H]2CCCC[C@@H]21`, the Z score rises from -1.05 to 2.42.

Going from `CCCC1CCC(NS(=O)(=O)C2CCS(=O)(=O)CC2)CC1` (stereo unspecified) to `O=C(O)CCC1CCN(C(=O)C2CCC(F)(F)CC2)CC1`, the Z score rises from 0.24 to 1.33.

Going from `S=c1sc2c(N3CCN(Cc4ccccc4)CC3)ncnc2n1-c1ccccc1` to `Cc1cc(-c2ccc(S(=O)(=O)N3CCc4ccccc43)o2)[nH]n1`, the Z score falls from 1.25 to 0.24.

Compared with `CC(C)CCC(=O)NCC(=O)N(C)c1cnn(C)c1`, `CC(=O)N[C@H]1CCN(C(=O)c2cc(C(C)C)nn2C)C1` is lower in Z score: 1.46 for the first, 0.43 for the second.

First: Cc1nnc2ccc(N3CCCN(C(=O)c4ccc(COC(C)C)o4)CC3)nn12
Second: Cc1cccc(CN2C(=O)C3(CCOCC3)C[C@H]2c2nnnn2C(C)(C)C)c1
The Z score of the first is lower: 1.7 for the first, 1.75 for the second.

First: COCCN[C@H]1[C@@H]2OC[C@@H](O2)[C@@H](NCc2ccccc2)[C@@H]1O
Second: CO[C@H]1CNC[C@@H]1Nc1nc(-c2ccccc2)no1
The Z score of the first is lower: -0.76 for the first, 2.04 for the second.

Going from `O=C(N[C@@H](CO)C1CCC1)c1cnn2cccc(Br)c12` to `Cc1cnn([C@@H](C)CNC(=O)c2ccncc2Cl)c1`, the Z score falls from 1.34 to 0.38.

Going from `Cc1ccc(Cc2cnc(NC(=O)CCc3c(C)nn(CCC#N)c3C)s2)cc1Cl` to `CCc1nnc(NC(=O)c2cc(-c3ccc(C)c(C)c3)on2)s1`, the Z score rises from -1.33 to 0.3.

First: Cc1cc(=O)[nH]c(NCCN2C[C@@](C)(c3ccccc3)CCC2=O)n1
Second: O=S(=O)(c1ccccc1Br)N1CC(Nc2ncccn2)C1
The Z score of the first is lower: -1.25 for the first, -0.79 for the second.

First: Cc1noc(CN2CCC[C@@H]2C(F)F)n1
Second: Cc1cnc2c(C)cccc2c1N1CC[C@H](OC(F)F)C1
The Z score of the first is lower: -0.31 for the first, 0.64 for the second.

Going from `CCN(C)CC(=O)N1CC[C@@]2(CCCN(CCc3ccccc3)C2)C1` to `COCC[C@]1(c2noc(C3CCOCC3)n2)CCCN(Cc2cn(C)nc2C)C1`, the Z score falls from 0.93 to -0.25.

Going from `Cn1cc(Cl)cc1C(=O)N(Cc1ccncc1)C1CC1` to `O=C(c1ccc(OC2CCC2)cc1Cl)N1CCCO1`, the Z score rises from -0.5 to 0.57.

Compared with `NC(=O)c1cc(C(F)(F)F)cc(Cl)c1F`, `COC(=O)C(NCc1cccc(F)c1F)C(C)O` (stereo unspecified) is lower in Z score: -0.03 for the first, -0.29 for the second.

Going from `Cc1ccc(S(=O)(=O)N2C[C@@H](C(=O)Nc3cccc(F)c3)Oc3cc(C)ccc32)cc1` to `O=C(Nc1ccc(OCc2cccnc2)cc1)NC1CCC(O)CC1` (stereo unspecified), the Z score rises from 1.13 to 1.8.

Compared with `Cc1nn(CC(=O)O)c2nccc(-c3cccs3)c12`, `Cc1cc(NC(=O)Cn2ccc(-c3nccnc3C)n2)n(C2CCCCC2)n1` is higher in Z score: -0.14 for the first, 0.43 for the second.

Compound `CCCc1cc(C(=O)Nc2ccc(NC)nc2)no1` has a Z score of 0.19.
